# Assay results taken from the supplement of paper PMC10126150.
# Values marked as one replicate rest on one cluster of the flow cell; about a third of the high ones do not repeat.
# Tested on: ATP
# Assay: switch fluorescence ratio, 500 uM ATP over buffer (Cy3 cluster intensity, sum of 5 cycles each) (fold (ratio)); higher = stronger signal-on switching upon ATP binding; sequences stand for … in TCGTCGGCAGCGTCAGATGTGTATAAGAGACAGTTTTTTTTTTTTTTTTTTTTTTTTT…TC
# Settings: aptamer strand: ATP DNA aptamer (quencher-CACCTGGGGGAGTATTGCGGAGGAAGG + anchor), 100 nM annealed; ATP concentration: 500 uM; one replicate
# In short: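 The fluorescence ratio divides summed target-cycle Cy3 intensity by summed buffer-cycle Cy3 intensity for each cluster and is averaged per switch-domain sequence. Cy3-labelled switching-strand clusters on a modified Illumina MiSeq flow-cell were annealed to 100 nM quencher-labelled ATP aptamer, then imaged in selection buffer and again after 15 min with 500 uM ATP at 22 °C. Five such cycles were run, with NaOH stripping and re-annealing between them, and clusters outside 100-1000 RFU were excluded.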
# 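Also: ATP exposure 15 min at 22 °C before imaging.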
row,Sequence,switch fluorescence ratio
1,CTGCTGGAGC,1.06
2,CTGCTGGATG,1.03
3,CTGCTTAAGA,0.993
4,CTGCTTGCAA,1.04
5,CTGGAAGTGT,0.947
6,CTGGACATAT,1.01
7,CTGGACCTTA,1.04
8,CTGGACGGA,0.958
9,CTGGATAGGT,0.999
10,CTGGCAAAAT,1.06
11,CTGGCCACAC,1.03
12,CTGGCCCGTG,1.03
13,CTGGCGAACC,1.02
14,CTGGCTTTCA,1.04
15,CTGGCTTTTC,1
16,CTGGGACAA,0.985
17,CTGGGACCCG,0.956
18,CTGGGAGCTC,1.02
19,CTGGGATGA,0.966
20,CTGGGCTCCA,1.02
21,CTGGGGGAGA,1.01
22,CTGGGGGGA,1.01
23,CTGGGGTATT,0.998
24,CTGGGGTGGT,0.973
25,CTGGGTGGT,0.939
26,CTGGGTTTTA,0.995

row,Sequence,switch fluorescence ratio
1,CTGGTAATTC,1.08
2,CTGGTACAAT,1.06
3,CTGGTACACG,0.923
4,CTGGTCACAA,1.03
5,CTGGTCGCAC,1.06
6,CTGGTTATCT,0.978
7,CTGGTTTACG,1.03
8,CTGGTTTGTA,0.954
9,CTGTAAAAGT,1.01
10,CTGTACGTC,0.969
11,CTGTACTTTG,1.07
12,CTGTAGCCG,0.826
13,CTGTCGAATG,0.952
14,CTGTGAACAG,1.03
15,CTGTGACAGC,1.06
16,CTGTGACAGT,0.976
17,CTGTGACGGT,0.961
18,CTGTGCGTAA,1.43
19,CTGTGTAACC,0.97
20,CTGTGTAAGC,1.02
21,CTGTGTAGT,1.16
22,CTGTGTGGGC,1.01
23,CTGTGTGGGG,0.965
24,CTGTTATGG,1.01
25,CTGTTATTAC,1.18
26,CTGTTCCTGG,0.996

row,Sequence,switch fluorescence ratio
1,CTGTTGACTC,1.03
2,CTGTTGGACG,0.964
3,CTGTTGGCT,0.966
4,CTGTTGTGGA,1.04
5,CTGTTGTGTA,1.01
6,CTTAAACTTG,0.97
7,CTTAAAGGCG,0.949
8,CTTAAATCGG,1.04
9,CTTAACTGGG,1.05
10,CTTAAGATGT,0.984
11,CTTAAGTGGT,0.995
12,CTTAATACAG,1.02
13,CTTAATGTGG,0.969
14,CTTAATTATT,1.01
15,CTTACACAGT,1.01
16,CTTACAGTAA,1.11
17,CTTACATTC,1.04
18,CTTACATTCA,1.08
19,CTTACGCCGT,1.01
20,CTTACTGCCT,1.24
21,CTTACTGGG,0.986
22,CTTACTTATG,1.01
23,CTTACTTGTT,1.01
24,CTTAGACAAG,0.963
25,CTTAGACGAC,1.02
26,CTTAGATT,0.994

row,Sequence,switch fluorescence ratio
1,CTTAGCTACC,1.19
2,CTTAGCTCAT,1.07
3,CTTAGGAAAT,1.04
4,CTTAGGAGCG,0.979
5,CTTATAATGC,1.09
6,CTTATAGTTC,1.03
7,CTTATATTGG,1.01
8,CTTATCCCTG,0.983
9,CTTATGGTCT,1.01
10,CTTATGTTCC,1.01
11,CTTATTAAAA,0.988
12,CTTATTAAAT,0.987
13,CTTATTGTAT,0.998
14,CTTATTTACG,1.02
15,CTTCACATAG,1.04
16,CTTCACGCCA,1.43
17,CTTCACTGA,1.01
18,CTTCCAAACG,1.61
19,CTTCCCGGTG,5.44
20,CTTCCGTATG,1.47
21,CTTCCGTTGA,1.45
22,CTTCCTCTTA,2.03
23,CTTCCTGTGT,1.13
24,CTTCCTTCGA,4.91
25,CTTCGAAGCC,1.2
26,CTTCGAGACA,1

row,Sequence,switch fluorescence ratio
1,CTTCGAGGAC,1.03
2,CTTCGATAGG,1.03
3,CTTCGGAGAT,1.02
4,CTTCGGTCTG,0.969
5,CTTCGTTTG,0.977
6,CTTCTAAGCT,1.03
7,CTTCTATGTA,1.03
8,CTTCTCAACA,1.02
9,CTTCTCGTCT,1.08
10,CTTCTTAATC,1.05
11,CTTCTTCATA,0.984
12,CTTGAAACTT,1.1
13,CTTGACGGAA,1.37
14,CTTGACTACG,1.06
15,CTTGAGAGTG,1.03
16,CTTGAGTGAG,0.988
17,CTTGATAGAG,1.02
18,CTTGATGCG,0.965
19,CTTGATGGTT,0.966
20,CTTGCCGTGT,1.1
21,CTTGCTAGTT,0.974
22,CTTGCTGTTT,1.04
23,CTTGGAGGTA,0.979
24,CTTGGCCAGA,1.02
25,CTTGGCGGAT,0.952
26,CTTGGGGATA,1.03

row,Sequence,switch fluorescence ratio
1,CTTGGGGT,1.01
2,CTTGGGTCTT,1
3,CTTGGTAGTA,0.989
4,CTTGTCAGTC,1.02
5,CTTGTCCTTA,1.02
6,CTTGTCGACT,0.974
7,CTTGTCGCTG,0.981
8,CTTGTGTCCT,1.02
9,CTTGTTGCGG,1.02
10,CTTGTTTGGA,1.02
11,CTTTACCTCA,1.06
12,CTTTACGAGA,1.02
13,CTTTATCAAA,0.962
14,CTTTATCCGA,1.05
15,CTTTCCGATC,1.2
16,CTTTCCTGAG,1.09
17,CTTTGAAACT,1.02
18,CTTTGAAAT,0.989
19,CTTTGAGGA,1.01
20,CTTTGCTTGT,0.988
21,CTTTGGTTTG,1
22,CTTTGGTTTT,1.03
23,CTTTGTCTTG,0.942
24,CTTTGTGAAC,1
25,CTTTGTTCCC,1.01
26,CTTTGTTGCT,0.993

row,Sequence,switch fluorescence ratio
1,CTTTTAAGAA,0.994
2,CTTTTACGCA,1.32
3,CTTTTATTCT,0.99
4,CTTTTCAATC,1.73
5,CTTTTCGGTT,0.983
6,CTTTTGATGC,0.97
7,CTTTTGGAAC,0.992
8,CTTTTTCGAC,0.993
9,CTTTTTCGGA,0.974
10,CTTTTTCGTA,0.976
11,CTTTTTTGTG,1.01
12,GAAAAAAGTC,0.977
13,GAAAACCTTA,1.01
14,GAAAAGGTTG,0.983
15,GAAAAGTAGA,1.02
16,GAAAATAAGG,0.996
17,GAAAATACTA,0.964
18,GAAACACACG,1.34
19,GAAACAGTGG,1.02
20,GAAACCAAGA,1.04
21,GAAACCTACT,1.39
22,GAAACGGGGT,0.957
23,GAAAGAAAGG,1.01
24,GAAAGACCGA,1.18
25,GAAAGCACAA,1.14
26,GAAAGGAGTG,1.03

row,Sequence,switch fluorescence ratio
1,GAAAGGCAAG,0.988
2,GAAAGTCACA,1.06
3,GAAAGTGTT,0.992
4,GAAAGTTGAT,0.972
5,GAAAGTTTAG,0.984
6,GAAATCGGG,0.946
7,GAAATGAAGT,0.987
8,GAAATGCTGG,0.968
9,GAAATGGTAC,1
10,GAAATGGTTG,0.98
11,GAAATTCACG,1.02
12,GAAATTGGTA,0.977
13,GAAATTGTG,1.03
14,GAACAAATTG,1
15,GAACAACGAT,0.986
16,GAACAATCGC,1.16
17,GAACAGGGGT,1.04
18,GAACATTTAT,1.02
19,GAACCATAAC,1.09
